# Data reported in publication PMC6250051 (ACS chemical biology, 2018).
# Target: StrepII-SUMO-Beclin 1 (F359D/F360D/W361D) (human, UniProt Q14457, F359D | F360D | W361D)
# Assay: AlphaScreen or HTRF
binder,measurement,value
Bcl-2–6xHis ([…]) (domain or fragment) not shown,binding result,binds
